Source: PubChem BioAssay AID686970 (National Center for Advancing Translational Sciences (NCATS), 2013)
Screen size: about 360,000 compounds; about 6,000 (1.7%) were called active. The inconclusive results got no clear call from the source; some entries with a clear call stand among them for comparison. Calls come from the whole dose curve; as a rule, active = well fitted cell-killing curve with a large enough effect; inconclusive = small, poorly fitted or top-dose-only effect, or effect the other way; inactive = flat fitted curve, though single readings scatter. No potency is given beside an inconclusive call; the fits are too rough.
Potency is the fitted concentration of half-maximal effect; tags give direction and shape of the fitted curve.

Test: qHTS for induction of synthetic lethality in tumor cells producing 2HG: qHTS for the HT-1080-NT fibrosarcoma cell line;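 note: NT is the 2HG producing partner of a matched IDH1 knockdown line; nearly all actives have a fitted effect of over 55% in size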;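 for activity, negative = less viability: 0% = DMSO-treated cells and -100% = media-only wells without cells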
Details: HT-1080-NT fibrosarcoma viability, CellTiter-Glo ATP luminescence, 48 h; activity, negative = less viability: at 46.1 µM (top of the series) unless noted
Method in brief: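 A 48-hour cytotoxicity screen used HT-1080-NT cells plated 2 hours before compound delivery. ATP-based CellTiter-Glo luminescence measured viability, normalized to DMSO and no-cell controls.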
With `Cc1cccc(S(=O)(=O)N(C)C[C@H]2OCc3cnnn3CCCC(=O)N([C@H](C)CO)C[C@H]2C)c1` the Potency was “inactive”.
In the case of `C[N+](=O)C1C(=O)Nc2ccccc21` (stereo not given), the Potency is reported as “inactive”.
With `COc1cccc(CN2CCC(n3nccc3NC(=O)CCCc3ccccc3)CC2)c1` the Potency was inconclusive [cytotoxic, single point].
With `CC1(C)CC(CCNS(=O)(=O)c2ccccc2)(c2ccccc2)CCO1` (stereo not given) the Potency was “inactive”.
For `CCOC(=O)c1nnc(-c2ccccc2)nc1Oc1ccc(Cl)cc1`, the Potency was inconclusive [cytotoxic, single point].
In the case of `COc1ccccc1-c1cc2nc(C)c(CCC(=O)NCc3ccc(F)cc3)c(C)n2n1`, the Potency is reported as “inactive”.
In the case of `CN(C)CCCN(C(=O)c1ccc(S(=O)(=O)N2CCCC2)cc1)c1nc2c(F)cc(F)cc2s1`, the Potency is reported as “inactive”.
With `COc1cc(-c2coc3c(C(=O)NCc4ccc(C(F)(F)F)cc4)cccc23)ccc1O` the Potency was inconclusive [cytotoxic, single point].
In the case of `COc1ccc(NC(=O)C2Cc3c(-c4ccc(NC(C)=O)cc4)ccnc3O2)cn1` (stereo not given), the Potency is reported as inconclusive [cytotoxic, single point].
With `COc1ccc(C(=O)c2cccc(C(=O)c3ccc(OC)c(C)c3)c2)cc1C` the Potency was “inactive”.
With `O=C(CN1CCN(Cc2ccccc2)CC1)N1CCCc2c1c(=O)oc1ccc(O)cc21` the Potency was inconclusive [cytotoxic, single point].
In the case of `NC1=CC(=O)C(=O)c2cccnc21`, the Potency is reported as active: 25.9 µM.
In the case of `N#CC1=C(N)C(C#N)(C#N)C(c2cccnc2)C2CC(c3ccccc3)CC=C12` (stereo not given), the Potency is reported as inconclusive [cytotoxic, partial curve].
In the case of `CCn1c(C)nc2cc(C(=O)OC(C(F)(F)C(F)F)C(F)(F)C(F)F)ccc21`, the Potency is reported as “inactive”.
In the case of `CC(=O)Nc1ccc(CNc2nc3cc(-c4ccccc4C)sc3c(=O)n2C)cc1`, the Potency is reported as inconclusive [cytotoxic, single point].
With `O=C1CCN(Cc2nnnn2CC2CCCO2)c2ccccc2N1` (stereo not given) the Potency was “inactive”.
In the case of `CCC1CCCCN1S(=O)(=O)c1ccc(C(=O)Nc2nnc(-c3cccs3)o2)cc1` (stereo not given), the Potency is reported as active: 8.91 µM.
In the case of `Cc1ccc(Cl)cc1N1CCN(C(=O)c2cn(C)c(=O)c3c2c2ccccc2n3C)CC1`, the Potency is reported as “inactive”.
With `CC1Cc2ccccc2N1CC(=O)NC(c1ccccc1)c1ccccc1` (stereo not given) the Potency was inconclusive [cytotoxic, single point].
With `O=C(NC12CC3CC(CC(C3)C1)C2)c1ccc([N+](=O)[O-])o1` the Potency was inconclusive [cytotoxic, partial curve].
For `Oc1cc2c(cc1O)[C@@H](c1ccccc1)CNCC2`, the Potency was inconclusive [cytotoxic, single point].
For `FC(F)(F)c1nc2ccccc2c2nc3ccccc3n12`, the Potency was “inactive”.
In the case of `Cc1ccc(N2CCN(C(C(=O)Nc3c(C)cccc3C)c3ccccc3OC(F)(F)F)CC2)cc1` (stereo not given), the Potency is reported as “inactive”.
For `O=C(N/N=C/c1ccccn1)c1cccc(S(=O)(=O)Nc2ccccc2Cl)c1`, the Potency was “inactive”.
With `O=C(O)CC(NC(=O)C12CC3CC(CC(C3)C1)C2)c1ccc(OC2CCCC2)cc1` (stereo not given) the Potency was inconclusive [cytotoxic, single point].
With `COc1ccc(N/N=C(C)/C(=N/O)C(=O)Nc2ccccc2)cc1` the Potency was inconclusive [cytotoxic, single point].
With `COc1cc(NC(=O)c2ccccc2Cl)c2ncccc2c1` the Potency was inconclusive [cytotoxic, single point].
For `CCOc1cccc(/C=N/Nc2ccc(S(=O)(=O)N(CC)CC)cn2)c1O`, the Potency was inconclusive [cytotoxic, full curve].
In the case of `Cc1c(C(C)C)c(=O)n(-c2ccc(S(=O)(=O)NC3CCCCC3)cc2)n1C`, the Potency is reported as “inactive”.
With `O=[N+]([O-])c1ccc(Sc2cc[n+]([O-])c3ccccc23)c([N+](=O)[O-])c1` the Potency was active: 16.4 µM.
With `CN1C(=O)/C(=C/c2ccccc2F)Sc2ccc(C(=O)NCC3CCCO3)cc21` (stereo not given) the Potency was “inactive”.
With `CC1CCC(C(C)C)C(OCC(O)CN2CCN(Cc3ccccc3)CC2)C1` (stereo not given) the Potency was active: 23.1 µM.
For `CCc1nnc(NC(=O)c2ccc(S(C)(=O)=O)cc2)s1`, the Potency was “inactive”.
For `COc1ccccc1C(NC(=O)C1CCN(CCOc2ccccc2)CC1)c1ccccn1` (stereo not given), the Potency was inconclusive [rising, full curve, poor fit].
In the case of `CN(C(=O)CSCC(=O)Nc1ccc(Cl)cc1)C1CCCCC1`, the activity, negative = less viability is reported as inconclusive: -23.1% [cytotoxic].
In the case of `C=CCNc1nc(Nc2ccc(OC)c(OC)c2)c2sc(-c3ccccc3)cc2n1`, the Potency is reported as active: 5.17 µM.
For `O=C(Oc1cccc(NC(=O)c2ccco2)c1)c1cccc(S(=O)(=O)N2CCCCC2)c1`, the Potency was “inactive”.
In the case of `COc1ccc(C(=O)C2CCCN(Cc3cc(Cl)ccc3O)C2)c(OC)c1` (stereo not given), the Potency is reported as inconclusive [cytotoxic, single point].
With `O=C(COC(=O)c1ccc(NS(=O)(=O)c2cccs2)cc1O)NCc1ccccc1` the Potency was active: 2.59 µM.
For `CC1(C)Oc2ccc3ccc(=O)oc3c2/C(=C/Nc2cccc(O)c2)C1=O`, the Potency was inconclusive [cytotoxic, single point].
With `CCCOc1ccc(C(=O)C(CCC(CNCC)C(=O)c2ccc(OCCC)cc2)CNCC)cc1` (stereo not given) the Potency was active: 16.4 µM.
With `CCN(CC(=O)Nc1ccc(OC)cc1)CC(=O)Nc1sc2c(c1C(=O)OC)CCCC2` the Potency was inconclusive [cytotoxic, single point].
In the case of `CC1CCN(C(=S)NCCc2ccccc2)CC1`, the Potency is reported as inconclusive [cytotoxic, single point].
In the case of `Cc1cccc(NNC(=O)C2CCC2)c1`, the Potency is reported as active: 7.31 µM.
For `Cc1ccc(OCc2cc(C(=O)NCCc3cccnc3)no2)cc1C`, the Potency was inconclusive [cytotoxic, single point].
For `COc1ccc(CN(CCN(C)C)Cc2ccccc2)c(OC)c1`, the Potency was “inactive”.
With `C#CCNC(=O)C[C@@H]1C[C@@]2(C(=O)OCC)CCCC=C2N(CCC2=CCCCC2)C1=O` the Potency was “inactive”.
For `Cc1nn(-c2ccccc2)c(N)c1N=Nc1ccc(Cl)cc1`, the Potency was inconclusive [cytotoxic, single point].
For `CN(C)CCCSc1nc(-c2ccccc2)nc2c1CCC2`, the Potency was “inactive”.
In the case of `C[C@@H]1CCCN1[C@H]1CS(=O)(=O)N[C@@H]1COCc1ccccc1`, the Potency is reported as “inactive”.
With `S=C(NCc1ccc(Cl)cc1)Nc1ccncc1` the Potency was inconclusive [cytotoxic, partial curve].
In the case of `COc1cccc(C(=O)Nc2nc(C)cs2)c1`, the Potency is reported as “inactive”.
For `Cc1ccc(N/C=C/C(=O)c2sc(-c3ccccc3)nc2C)cc1`, the Potency was inconclusive [cytotoxic, single point].
In the case of `COc1cccc2c1C(=O)c1c(O)c3c(c(O)c1C2=O)CC(O)(C(C)=O)CC3OC1CC(N(C)C)C(O)C(C)O1` (stereo not given), the Potency is reported as inconclusive [cytotoxic, full curve].
For `CCC1(c2ccccc2)NC(=O)N(CC(=O)Nc2cc(S(=O)(=O)N3CCCCCC3)ccc2OC)C1=O` (stereo not given), the Potency was “inactive”.
With `COc1ccc(-c2nn(C)c(=O)c3ccccc23)cc1NC(=O)Cn1nc(C)c2ccccc2c1=O` the Potency was inconclusive [cytotoxic, single point].
In the case of `CCOC(=O)N1CCN(C(C(=O)NC2CCCC2)c2cccc(OC)c2OC)CC1` (stereo not given), the Potency is reported as “inactive”.
In the case of `OC(CN1CCN(c2ccccc2Cl)CC1)c1ccccc1` (stereo not given), the Potency is reported as active: 16.4 µM.
With `N#CC1=C(N)N2C(=C(C#N)C1c1ccc(Br)cc1)Nc1ccccc12` (stereo not given) the Potency was inconclusive [cytotoxic, partial curve].
For `CC1(C(=O)NCc2ccccc2)Cc2c(-c3ccc4c(c3)OCO4)ccnc2O1` (stereo not given), the Potency was inconclusive [cytotoxic, full curve].
For `CC1=C(C(=O)OC(C)C)C(c2ccc(Br)s2)NC(=O)N1` (stereo not given), the Potency was inconclusive [cytotoxic, single point].
With `CCN1CCN(c2ccc(S(=O)(=O)N3CCOCC3)cc2NC(=O)c2sccc2C)CC1` the Potency was “inactive”.
With `Clc1ccc2oc(-c3cccnc3NCc3ccccc3)nc2c1` the Potency was “inactive”.
With `Cc1nc2c(o1)C(=O)c1ccccc1C2=Nc1ccccc1` the Potency was active: 5.8 µM.
With `CC(=O)Nc1cccc(-c2ccnc3c2CC(C(=O)NCc2cccs2)O3)c1` (stereo not given) the Potency was inconclusive [cytotoxic, full curve].
For `ON=C1c2cc(OCCN3CCCCC3)ccc2-c2ccc(OCCN3CCCCC3)cc21`, the Potency was active: 20.6 µM.
In the case of `Cc1nc(CCNC(=O)CC2C(=O)NCCN2Cc2ccccc2F)sc1C` (stereo not given), the Potency is reported as inconclusive [rising, partial curve].
With `COc1cccc(C2CC(c3ccc(Br)cc3)=NN2C(=O)c2ccncc2)c1OC` (stereo not given) the Potency was active: 18.4 µM.
With `COc1cc(NC(=O)c2ccc(Cl)cc2Cl)ccc1-c1cc2ccccc2oc1=O` the Potency was inconclusive [cytotoxic, single point].
With `NC(Cc1ccccc1)C(O)(c1ccccc1)c1ccccc1` (stereo not given) the Potency was “inactive”.
For `COc1ccc(S(=O)(=O)N(C)C[C@H]2Oc3c(NC(=O)c4ccncc4)cccc3C(=O)N([C@H](C)CO)C[C@@H]2C)cc1`, the Potency was “inactive”.
In the case of `COCCCNC(=O)c1ccc2c(=O)n(Cc3ccc4c(c3)OCO4)c(=S)[nH]c2c1`, the Potency is reported as inconclusive [cytotoxic, single point].
In the case of `CCNC(=S)NNC(=O)c1cc(C2CC2)nc2ccccc12`, the Potency is reported as inconclusive [cytotoxic, single point].
In the case of `COc1ccc(OC)c(C(=O)Cn2cnc3ccccc3c2=O)c1`, the Potency is reported as “inactive”.
For `c1ccc(CNc2nc(NCCc3ccncc3)c3sccc3n2)cc1`, the Potency was inconclusive [cytotoxic, single point].
